# Data as given in the supplement of paper PMC11417369.
# This is one part of the list.
# Test system: PfSIP2 AP2 domain 1 (GST-tagged)
# Assay: gcPBM binding intensity (ln(normalized median fluorescence intensity)); higher = stronger DNA binding
# Outline: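 DNA-binding domains from P. falciparum, fused to GST and produced in E. coli, were put on an Agilent 4 × 180k double-stranded probe array for 1 h in 1× PBS holding 1% milk, 0.2 mg/ml BSA, 0.5% salmon testes DNA and 0.03% Triton X-100. Probes were primer-extended, 36 bp long and drawn from intergenic genomic regions, with negative controls included. After Alexa488 anti-GST antibody detection and a 488 nm scan, binding intensity was set as the highest Masliner-normalised natural-log median intensity across replicate spots of either probe orientation.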
row,Sequence,gcPBM binding intensity (ln)
1,AAAACCTAGTGCATTTGTACATATTTCAATTTTAAA [XGTACX_site4582],9.33
2,TAAAAAATACAAGAGTGTACAAAATTTTTCTAAATG [XGTACX_site5334],6.91
3,TATACGTGTTTTATTTGTACTTAAGCAGGTAAGCAT [XGTACX_site193],6.96
4,CTATATATTTTTTCTTAACACACATATATAAAATAA [CACACA_site9165],7.26
5,TTATTTTTTAATTATATTCAAAATTAAAAAAAAAAA [XGTACX_negctrl_site226],6.89
6,ATTGATAAATTAACTAGTACACATATAAATATATTA [XGTACX_site2325],7.15
7,ATTAAAAAAAAAAAAAAAAAAAAAAAAAAAAAAAAA [CACACA_negctrl_site1060],7.02
8,AATATAAATGTGATTACACACAACAGATTTAAATGG [CACACA_site4802],6.98
9,TAGTATTTATATGATTAACACACATATGGGTATTAA [CACACA_site8363],6.67
10,AAAAAAAAAAAAAAAAGTACTCAATAATAATTACAT [XGTACX_site670],7.74
11,CATAATAGTTATAAAATACACACCAGGCATGATAAA [CACACA_site329],6.76
12,ATATACACCTGAGAGGTGCATATATATAAAATTTAC,11.2
13,CCGTACAATTTTGTCACACATAAAATACTTATGTAT [CACACA_site4871],6.95
14,AATGTAGTTTATCGATGTACACAAAATAAAGAGAAG [XGTACX_site6956],7.99
15,GTAATTTTTTTCTATACACACATATATATAATATAT [CACACA_site2655],7.44
16,AATATAAATATAAATATAAATAAATAAATAAATAAA [CACACA_negctrl_site291],7.25
17,AAAGTAAAAGGGTTTGGTACACATATAATATATTAG [XGTACX_site6036],6.95
18,CATTTATATAAAGAATGTACACACAGAAATGCACAC [XGTACX_site4718],8.37
19,ATAACTTTTATTTGTACACACATACATCTATATTAT [CACACA_site6595],7.49

row,Sequence,gcPBM binding intensity (ln)
1,AGTAAAAGAAAGCACACACACATGTATTTATGTATG [CACACA_site5998],6.85
2,AAAAAAAAAAAAAAATGTACATATATATATATATTA [XGTACX_site7330],7.32
3,ATAAAATAAGACAAAAAAAAAATATATATATATATA [TGCATGCA_negctrl_site314],9.19
4,CCTTGTCTTTTTTTTTTTTTTTTTTCTTCTTATTTT [GTGCAC_negctrl_site523],6.9
5,AGTAGATATAATATATGTACATATATATATATATAT [XGTACX_site7186],9.72
6,TGCATATACTCAAGCACACATATATATATATATATA [CACACA_site4733],9.6
7,ATATTAAACAAACACACACACATATATATATATATA [CACACA_site3383],9.67
8,ATATATTGAAAATATAGTACATAATAAATGTTCTTT [XGTACX_site8474],6.83
9,TTTTTTTTTTTTTTTTTTTTTTTTTTTTTTTGGGGG [CACACA_negctrl_site1570],7.49
10,AATAAATTTAAACACACACACACATATATATATATA [CACACA_site4621],9.57
11,TATATACATAAACACACACACACATATATATATATA [CACACA_site8707],9.72
12,CAGATAGACTTATATGCATGCATTCACCTGCCAACA [TGCATGCA_site158],6.91
13,ATATTACATAATATATGTACACACGCAAATACTTAT [XGTACX_site671],7.11
14,TAAGCATAAATGTATACATGCGATGCATACACATAT [TGCATGCA_site749],6.77
15,ATGAAATTATATTGGGGTACGTCAAAAAAGGAGATA [XGTACX_site7451],7.5
16,GGGTATATATTATTATGTACACATGTATAAAATAAG [XGTACX_site2633],7.29
17,AAAAAAAAAAAAATTACACACATACATATAATAATA [CACACA_site8680],7.06
18,ATATTAAGAATAAACAGTACATATAATAAATACCAT [XGTACX_site5933],6.92
19,TTTGTGTATATATAATGTACATTATATTTTTATTAT [XGTACX_site6506],7.15

row,Sequence,gcPBM binding intensity (ln)
1,ATTAAAAAAAAAGAGCGTACAAATAATTACTTCTTT [XGTACX_site8262],6.83
2,TATAAATTTATAAATAGTACATATATTTATATATAT [XGTACX_site6433],7.36
3,TATATATATGGACACACACACACATATATATATATA [CACACA_site6121],9.4
4,AAAAAAAATATACATACATGCATACATAAGTTTCTA [TGCATGCA_site998],6.98
5,AAACGTATGTTATTTACACACCCTTCCACTTTTATA [CACACA_site3337],6.8
6,TATAAAATAAGACATGCATGTTATACATATATATTT [TGCATGCA_site156],6.84
7,CATTATTATTTTATAACACACACATATATATTATAT [CACACA_site8405],7.08
8,ATGTTTTTTATTCTTCGTACGTATGAACGATAGTGT [XGTACX_site4225],7.3
9,ATGTGCAAATATTAAAGTACTAAATTTTATTATTTT [XGTACX_site7306],7.67
10,ATAAATACATATAAAAGTACACACACACACATATAT [XGTACX_site1744],7.36
11,TGAAATTTCAATACATGTACATATAAAAAAAAAAAA [XGTACX_site4424],7.12
12,TGTATATGTGAAGCAAGGGATGCGGCAGACATAACA [CACACA_negctrl_site1339],7.07
13,AAATTAAAAAAAAATAAATAAAAAAAAAAAAAAAAT [CACACA_negctrl_site1611],6.73
14,TTTTTTTTTTCTACAAGTACATATTTTCATTTAACA [XGTACX_site6621],6.97
15,AAAAAAAAAAAAAAATGTACATATATATATTATAAA [XGTACX_site518],7.47
16,TTTTTTTTTTTGTTCACACATATACTTTTATTTTGG [CACACA_site4250],7.07
17,AATGCTATCATTAATGCACACATTTAAACTTAATAT [CACACA_site5878],7.09
18,TATAACGCTTGCAGCTGTACAAAAATAATCAAACTG [XGTACX_site2464],6.89
